The source of these data is paper PMC12820563.

The list shows a part of the results. The list includes weakly bound sequences.

This experiment has as its target T1, MBP-FoxP3dN (UniProt Q99JB6).
T1 sequence: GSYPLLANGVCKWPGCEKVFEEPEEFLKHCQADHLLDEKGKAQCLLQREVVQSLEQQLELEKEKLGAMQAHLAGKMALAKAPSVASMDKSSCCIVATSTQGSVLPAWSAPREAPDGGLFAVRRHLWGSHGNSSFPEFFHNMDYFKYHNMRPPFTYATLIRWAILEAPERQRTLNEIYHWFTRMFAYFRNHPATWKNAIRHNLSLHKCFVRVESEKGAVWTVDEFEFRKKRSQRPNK
Description: PD-seq (MBP pull-down with sequencing). Particulars: 20 mM Tris-HCl pH 7.5, 100 mM NaCl, 1.5 mM MgCl2, 0.4 uM protein, 0.1 uM dsDNA library, 30 min, room temperature, amylose pull-down; high values mean tight binding; double strand, one strand shown.
With “GATGATTGTTCTCCCAGCTGATGAATTAGGCAGGTCGAGTAAACAAATTTTCCTAATCTTTCTGTTCAAGCGCCATCTAC”, the binding signal (RPM ratio (pull-down/input)) was determined as 0.591. On to “GATGATTGTTCTCCCAGCTGATGAATTATCGACGTCGAGTAAACAAATTTTCCTAATCTTTCTGTTCAAGCGCCATCTAC”, for which the binding signal (RPM ratio (pull-down/input)) amounted to 0.345.

For “GATGATTGTTCTCCCAGCTGATGAATTATCTTAATCGAGTAAACAAATTTTCCTAATCTTTCTGTTCAAGCGCCATCTAC”, the binding signal (RPM ratio (pull-down/input)) was determined as 0.251. For “GATGATTGTTCTCCCAGCTGATGAATTCTTGCGGTCGAGTAAACAAATTTTCCTAATCTTTCTGTTCAAGCGCCATCTAC”, the binding signal (RPM ratio (pull-down/input)) turned out to be 0.31.

As to “GATGATTGTTCTCCCAGCTGATGAATTCAGCAGATCGAGTAAACAAATTTTCCTAATCTTTCTGTTCAAGCGCCATCTAC”, the binding signal (RPM ratio (pull-down/input)) came out at 0.278. As to “GATGATTGTTCTCCCAGCTGATGAATTCACACACTCGAGTAAACAAATTTTCCTAATCTTTCTGTTCAAGCGCCATCTAC”, the binding signal (RPM ratio (pull-down/input)) is 0.431.

“GATGATTGTTCTCCCAGCTGATGAATTGGTCAAGTCGAGTAAACAAATTTTCCTAATCTTTCTGTTCAAGCGCCATCTAC”: the binding signal (RPM ratio (pull-down/input)) amounted to 0.217. In the case of “GATGATTGTTCTCCCAGCTGATGAATTCAAATTCTCGAGTAAACAAATTTTCCTAATCTTTCTGTTCAAGCGCCATCTAC” it was 0.426. Consider “GATGATTGTTCTCCCAGCTGATGAATTAATAAGTTCGAGTAAACAAATTTTCCTAATCTTTCTGTTCAAGCGCCATCTAC”, for which the binding signal (RPM ratio (pull-down/input)) stood at 0.346. In the case of “GATGATTGTTCTCCCAGCTGATGAATTATATAGGTCGAGTAAACAAATTTTCCTAATCTTTCTGTTCAAGCGCCATCTAC” it was 0.454. For “GATGATTGTTCTCCCAGCTGATGAATTACTCGCCTCGAGTAAACAAATTTTCCTAATCTTTCTGTTCAAGCGCCATCTAC”, the binding signal (RPM ratio (pull-down/input)) was 0.527. The same measure for “GATGATTGTTCTCCCAGCTGATGAATTCTTGCCGTCGAGTAAACAAATTTTCCTAATCTTTCTGTTCAAGCGCCATCTAC”: 0.517; for “GATGATTGTTCTCCCAGCTGATGAATTAAATAGTTCGAGTAAACAAATTTTCCTAATCTTTCTGTTCAAGCGCCATCTAC”: 0.661. Consider “GATGATTGTTCTCCCAGCTGATGAATTTGCCCTCTCGAGTAAACAAATTTTCCTAATCTTTCTGTTCAAGCGCCATCTAC”, for which the binding signal (RPM ratio (pull-down/input)) came to 0.526.

In the case of “GATGATTGTTCTCCCAGCTGATGAATTAGGGTTTTCGAGTAAACAAATTTTCCTAATCTTTCTGTTCAAGCGCCATCTAC”, the binding signal (RPM ratio (pull-down/input)) came out at 0.758. Regarding “GATGATTGTTCTCCCAGCTGATGAATTTCCCATGTCGAGTAAACAAATTTTCCTAATCTTTCTGTTCAAGCGCCATCTAC”, the binding signal (RPM ratio (pull-down/input)) was determined as 0.287. The same measure for “GATGATTGTTCTCCCAGCTGATGAATTTCTATGGTCGAGTAAACAAATTTTCCTAATCTTTCTGTTCAAGCGCCATCTAC”: 0.282. On to “GATGATTGTTCTCCCAGCTGATGAATTATAAATGTCGAGTAAACAAATTTTCCTAATCTTTCTGTTCAAGCGCCATCTAC”, for which the binding signal (RPM ratio (pull-down/input)) was found to be 0.446. In the case of “GATGATTGTTCTCCCAGCTGATGAATTTAGGATATCGAGTAAACAAATTTTCCTAATCTTTCTGTTCAAGCGCCATCTAC” it was 0.501; in that of “GATGATTGTTCTCCCAGCTGATGAATTGCGTCAGTCGAGTAAACAAATTTTCCTAATCTTTCTGTTCAAGCGCCATCTAC”, 0.93; in that of “GATGATTGTTCTCCCAGCTGATGAATTGATTGCATCGAGTAAACAAATTTTCCTAATCTTTCTGTTCAAGCGCCATCTAC”, 1.87. Regarding “GATGATTGTTCTCCCAGCTGATGAATTCGGGCTGTCGAGTAAACAAATTTTCCTAATCTTTCTGTTCAAGCGCCATCTAC”, the binding signal (RPM ratio (pull-down/input)) came out at 0.3. For “GATGATTGTTCTCCCAGCTGATGAATTCGATCTGTCGAGTAAACAAATTTTCCTAATCTTTCTGTTCAAGCGCCATCTAC”, the binding signal (RPM ratio (pull-down/input)) was 0.275. Turning to “GATGATTGTTCTCCCAGCTGATGAATTTGCAACTTCGAGTAAACAAATTTTCCTAATCTTTCTGTTCAAGCGCCATCTAC”, the binding signal (RPM ratio (pull-down/input)) was 4.24. In the case of “GATGATTGTTCTCCCAGCTGATGAATTCACAACCTCGAGTAAACAAATTTTCCTAATCTTTCTGTTCAAGCGCCATCTAC” it was 0.413; in that of “GATGATTGTTCTCCCAGCTGATGAATTGCTACCATCGAGTAAACAAATTTTCCTAATCTTTCTGTTCAAGCGCCATCTAC”, 0.894; in that of “GATGATTGTTCTCCCAGCTGATGAATTGTCTATGTCGAGTAAACAAATTTTCCTAATCTTTCTGTTCAAGCGCCATCTAC”, 0.881. As to “GATGATTGTTCTCCCAGCTGATGAATTAATTAGGTCGAGTAAACAAATTTTCCTAATCTTTCTGTTCAAGCGCCATCTAC”, the binding signal (RPM ratio (pull-down/input)) amounted to 0.654. Take “GATGATTGTTCTCCCAGCTGATGAATTGTGCCACTCGAGTAAACAAATTTTCCTAATCTTTCTGTTCAAGCGCCATCTAC”: the binding signal (RPM ratio (pull-down/input)) stood at 6.84. For the sequence “GATGATTGTTCTCCCAGCTGATGAATTCCAAGCCTCGAGTAAACAAATTTTCCTAATCTTTCTGTTCAAGCGCCATCTAC”, the binding signal (RPM ratio (pull-down/input)) came to 0.344. For “GATGATTGTTCTCCCAGCTGATGAATTTGGCGAATCGAGTAAACAAATTTTCCTAATCTTTCTGTTCAAGCGCCATCTAC”, the binding signal (RPM ratio (pull-down/input)) was determined as 0.363.
